Target: T1, human IL-15Rá subunit (IL-15 receptor alpha) on PHA-activated human PBMCs (human, UniProt Q13261 31-267)
T1 construct: whole, on cells; also called IL-15á chains
Assay: flow cytometry, double mutant then biotinylated anti-FLAG Ab and streptavidin-RED670

T1 sequence (Q13261 31-267): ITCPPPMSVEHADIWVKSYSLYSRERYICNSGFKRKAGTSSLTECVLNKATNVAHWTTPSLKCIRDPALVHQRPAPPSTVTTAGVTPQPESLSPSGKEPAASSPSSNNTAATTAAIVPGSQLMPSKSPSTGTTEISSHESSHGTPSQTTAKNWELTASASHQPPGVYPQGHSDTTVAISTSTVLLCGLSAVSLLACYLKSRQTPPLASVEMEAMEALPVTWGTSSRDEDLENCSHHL

- binding result: binds
B1: FLAG-HMK-IL-15 (Q149D; Q156D) double mutant protein (ligand, not shown: small tags and cut ends)
chain: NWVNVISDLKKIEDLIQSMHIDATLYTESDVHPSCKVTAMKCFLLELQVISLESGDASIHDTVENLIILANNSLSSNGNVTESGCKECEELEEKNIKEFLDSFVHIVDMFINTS
notes: also called FLAG-HMK-IL-15 double mutant; DM
